# Data: PubChem BioAssay AID686979 (National Center for Advancing Translational Sciences (NCATS), 2013)
# Several values for one entry are separate records, joined by “and”; a condition that tells them apart may be missing. Equal values may be shown once. The whole screen tested about 420,000 compounds, of which about 50,000 (12%) were called active. Inconclusive results, whose numbers are uncertain, are shown with a selection of clear calls. The call rests on the fitted dose curve; in most records, active means well fitted inhibition curve with a large enough effect; inconclusive means small, poorly fitted or top-dose-only effect; inactive means flat fitted curve, though single readings scatter. Potencies of inconclusive entries are left out as doubtful fits.
# Assay: qHTS for Inhibitors of human tyrosyl-DNA phosphodiesterase 1 (TDP1): qHTS in cells in presence of CPT; further: nearly all actives have a fitted effect of over 55% in size
# Conditions: chicken DT40 Tdp1-/-;hTDP1 cells + 20 nM CPT, ATP luminescence, 48 h; activity change, negative = growth inhibition: at 46.2 µM (top of the series) unless noted
# Method in brief: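 Chicken DT40 Tdp1-/- cells stably complemented with human TDP1 were seeded at 400 cells/well in medium containing 20 nM camptothecin, exposed to pin-transferred compounds, and grown at 37 °C for at least 48 hr. Viability was read as ATP luminescence.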
# On the % scale 0 is the no-effect control and ±100 the full control effect; potency means the concentration at half of the fitted maximal effect; tags describe the fitted curve by direction and shape.
Compound,Potency,"activity change, negative = growth inhibition"
O=C(O)CSc1cc(NS(=O)(=O)c2ccc(Br)cc2)c2ccccc2c1O,active: 2.91 µM,–
CCN1CCN(S(=O)(=O)c2ccc(Cl)c(C(=O)Nc3ccc(OC(F)F)cc3)c2)CC1,"inconclusive [inhibitor, single point]",–
COc1ccc(C2=NN(C(=O)c3ccco3)C(c3cccs3)C2)cc1OC (stereo unspecified),"inconclusive [inhibitor, single point]",–
CCC1(c2ccc(F)cc2)NC(=O)N(CC(=O)Nc2cc(S(=O)(=O)N(C)C)ccc2Cl)C1=O (stereo unspecified),"inconclusive [inhibitor, single point]",–
Cc1cccc(CNC(=O)CCCn2c(=O)c3cccn3c3ccc(F)cc32)c1,"inconclusive [inhibitor, single point]",–
O=C(NCc1cccc(Cl)c1)c1ccc(-c2ccc(F)c(F)c2)c2ccoc12,"inconclusive [inhibitor, single point]",–
CC(=O)C1=C(c2ccc(C)c(C)c2)N(C(C)=O)n2c(nnc2-c2ccc(Cl)cc2)S1,active: 5.17 µM,–
CCOC(=O)c1cnc(-n2nc(C)cc2C)nc1N1CCOCC1,"inconclusive [inhibitor, single point]",–
CC(OC(=O)C1CCN(S(=O)(=O)c2ccccc2C(F)(F)F)CC1)C(=O)N(C)Cc1ccccc1 (stereo unspecified),"inconclusive [inhibitor, single point]",–
Cc1cccc(C)c1NCC(=O)N1CCN(Cc2ccccc2)CC1,"inconclusive [inhibitor, single point]",–
COc1cc(OC)cc(C(=O)Nc2nc(CC(=O)NC(C)c3ccccc3)cs2)c1 (stereo unspecified),"inconclusive [inhibitor, single point]",–
O=C(Nc1ccc(N2CCOCC2)cc1N1CCOCC1)c1ncoc1-c1cccc(F)c1,"inconclusive [inhibitor, single point]",–
COc1ccc(CN2C(=O)CCC2(C)c2nnnn2-c2c(C)cccc2C)cc1OC (stereo unspecified),active: 16.4 µM,–
CC1CCN(S(=O)(=O)N2CCC(C(=O)NC(C)c3ccccc3)CC2)CC1 (stereo unspecified),active: 10.3 µM,–
Cc1csc2nc(COc3ccccc3NC(=O)c3ccc(C(C)(C)C)cc3)cc(=O)n12,"inconclusive [inhibitor, partial curve]",–
O=C(CN1CCN(C/C=C/c2ccccc2)CC1)Nc1ccc(F)cc1F,"inconclusive [inhibitor, single point]",–
O=C(O)CCc1ccc(-c2ccccc2)n1NC(=O)c1ccco1,–,inactive: 3.56%
O=C(Nc1ccc(Cl)c(S(=O)(=O)N2CCOCC2)c1)c1ccc2c(c1)OCCO2,"inconclusive [inhibitor, single point]",–
Cc1ccc(CN2CCSc3ccc(C(=O)NC4CCCC4)cc32)cc1,active: 16.4 µM,–
COc1ccccc1-c1c(NC(=O)C(C)C)n(C)c2ccccc2c1=O,"inconclusive [inhibitor, full curve, poor fit]",–
N#Cc1cccc(NC(=O)C2CCN(S(=O)(=O)c3ccc4[nH]c(=O)ccc4c3)CC2)c1,–,inactive: -5.37%
COc1ccc(-n2c(C)nc3cc(C(=O)N4CCOCC4)ccc32)cc1,–,inactive: 4.37%

Compound,Potency,"activity change, negative = growth inhibition"
Cc1nn(C)c(C)c1NS(=O)(=O)c1ccc(Cl)s1,"inconclusive [inhibitor, single point]",–
Cc1ccc(CN2CCN(CC(=O)Nc3ccc(C)c(C)c3)S2(=O)=O)cc1,"inconclusive [inhibitor, single point]",–
CCc1nc2ccc(C(=O)N(CC)CCN(C)C)cn2c1N(C)Cc1ccc(OC)cc1,–,inactive: -16.9%
CCOC(=O)C1(Cc2ccccc2C)CCCN(C(=O)CCc2c(C)noc2C)C1 (stereo unspecified),"inconclusive [inhibitor, single point]",–
COc1ccc2nc(NC(=O)c3cccc(-c4cc5ccccc5oc4=O)c3)sc2c1,active: 16.4 µM,–
CCOC(=O)N1CCN(C(=O)CN(Cc2ccccc2)S(=O)(=O)c2ccc(OC)c(Cl)c2)CC1,"inconclusive [inhibitor, single point]",–
COc1ccc(C)cc1S(=O)(=O)N1CCC(C(=O)NCCC2=CCCCC2)CC1,"inconclusive [inhibitor, single point]",–
Cc1ccc(C(=O)C=Cc2ccc3c(c2)OCO3)c(C)c1,"inconclusive [inhibitor, single point]",–
O=C(N/N=C/c1ccc(O)cc1)c1cc(-c2ccccc2)nc2ccccc12,"inconclusive [inhibitor, full curve]",–
Cc1noc(C)c1COc1ccc(C(=O)OCC(=O)N2c3ccccc3NC(=O)C2(C)C)cc1,"inconclusive [inhibitor, single point]",–
CCOC(=O)c1sc(NC(=O)CSc2n[nH]c(-c3ccc(Cl)cc3Cl)n2)c(C#N)c1C,"inconclusive [inhibitor, single point]",–
CCOC(=O)c1ccccc1NC(=O)COC(=O)CCC(=O)c1ccc(C)cc1,–,inactive: -8.72%
COc1nc(C#N)nc(N2CCCCC2)n1,"inconclusive [inhibitor, single point]",–
COC(=O)c1ccc(NC(=O)CNCc2ccncc2)cc1,"inconclusive [inhibitor, partial curve, poor fit]",–
O=C(COc1ccc2ccccc2c1)NCCNC(=O)COc1ccc2ccccc2c1,"inconclusive [inhibitor, single point]",–
Cc1c(NC(=O)c2nc3ccccc3nc2N2CCCCC2)cccc1[N+](=O)[O-],"inconclusive [inhibitor, single point]",–
CCn1c(SCC(=O)Nc2oc(-c3ccccc3)c(-c3ccccc3)c2C#N)nnc1-c1ccco1,"inconclusive [inhibitor, single point]",–
Cc1cc(F)ccc1-c1cc(C(=O)N2CCN(c3ccncc3)CC2)[nH]n1,"inconclusive [inhibitor, partial curve]",–
Cc1ccc(SCc2c(-c3ccccc3)nn(C)c2Cl)cc1,"inconclusive [inhibitor, single point]",–
C/C(=N\NC(=S)Nc1c(C)cccc1C)c1cc2ccccc2o1,active: 3.26 µM,–
CC(=O)O[C@H]1[C@@H](O)[C@H](O)[C@H](Oc2c(O)c(C)c3c4c2[C@@H](C)CC[C@@H]4[C@@H](C)C[C@H]3C=C(C)C)O[C@H]1C,"inconclusive [inhibitor, single point]",–
CCOC(=O)[C@]12CCCC=C1N(CCC1=CCCCC1)C(=O)[C@H](CC(=O)N1CCC(c3ccccc3)CC1)C2,"inconclusive [inhibitor, single point]",–

Compound,Potency,"activity change, negative = growth inhibition"
CCCCC(=O)NC(Nc1ccc(C)cn1)(C(=O)OCC)C(F)(F)F (stereo unspecified),–,inactive: -16.4%
COc1ccc2oc3cc(C)[n+]([O-])c(-c4ccc(Br)cc4)c3c2c1,"inconclusive [inhibitor, partial curve, poor fit]",–
O=[N+]([O-])c1ccc(Cc2nnc(-c3ccccc3Cl)o2)cc1,–,inconclusive: -35.8% [inhibitor]
c1ccc2c(c1)nnn2CNc1nccs1,active: 9.2 µM,–
CCOC(=O)c1cc(C)n(CC2CCC(C(=O)Nc3ccc(C)c(F)c3)CC2)c1C (stereo unspecified),"inconclusive [inhibitor, single point]",–
COC(=O)c1cccc(Nc2cc(C)nc(-c3ccccc3O)n2)c1,"inconclusive [inhibitor, single point]",–
CC(OC(=O)c1ccc([N+](=O)[O-])s1)C(=O)Nc1ncc(Cl)cc1Cl (stereo unspecified),"inconclusive [inhibitor, single point]",–
O=C(N/N=C/c1cccnc1)c1ccc([N+](=O)[O-])cc1Cl,–,inactive: -5.08%
COc1ccc(C2/C=C\CN(C(=O)c3ccccc3)CC(=O)N2Cc2cccc(F)c2)cc1 (stereo unspecified),"inconclusive [inhibitor, single point]",–
CN(C)CCCN1c2ccccc2CCc2ccc(Cl)cc21,active: 26.6 µM and active: 14.6 µM,–
O=C(NN(C(=O)c1ccccc1)c1cccs1)c1ccccc1,–,inactive: -13.2%
O=[N+]([O-])c1cnccc1Nc1ccccc1,"inconclusive [inhibitor, single point]",–
O=C(O)c1cc2n(n1)C(C(F)(F)F)CC(C1CC1)N2 (stereo unspecified),"inconclusive [inhibitor, single point]",–
COc1ccc(C(C)(O)c2nc(-c3ccc(S(C)(=O)=O)cc3)cs2)cc1 (stereo unspecified),"inconclusive [inhibitor, single point]",–
COc1ccc(NC(=O)c2noc(C(C)C)c2[N+](=O)[O-])cc1,"inconclusive [inhibitor, partial curve, poor fit]",–
CCCCC(=O)Nc1ccc(C(=O)Nc2ccc(S(=O)(=O)Nc3nccc(C)n3)cc2)cc1,–,inactive: -22.8%
CC(=O)N1CCN(C(C)=O)C1c1ccccc1,–,inactive: 1.13%
Cc1cccc(NC(=O)c2cc(Cl)ccc2[N+](=O)[O-])c1,"inconclusive [inhibitor, single point]",–
COc1cccc(/C=C/c2cnc3ccccc3n2)c1OC,"inconclusive [inhibitor, single point]",–
C=CCn1c(SCc2cc(=O)n3ccsc3n2)nc2scc(C3CC3)c2c1=O,"inconclusive [inhibitor, partial curve, poor fit]",–
C=CCSc1[nH]c(=O)cc(C)c1C(N)=O,–,inactive: 0.101%
Cc1c(C(=N)C(C#N)C#N)c(=N)oc2c1ccc1ccccc12,"inconclusive [inhibitor, single point]",–
